For some assays here: What follows is the remainder of the data, with few or none of the hits. Inconclusive results are not listed. The list shows a part of the results, in another mix than the full data. The source made the active and inactive calls. Rule for the calls, unless noted: active = hit-call score of the fitted dose curve at least 0.9, where 1 is the maximum; inactive = score below 0.9.
Legend:
[1] = read-out: Interleukin-8 (IL8), CXCL8 (gene 3576); assay: BSK_hDFCGF_IL8: BioMAP Diversity Plus: hDFCGF Assay for Interleukin-8 (IL8) Biomarker Activity (AID 2283058); conditions: actives raise or lower the signal; primary human foreskin fibroblasts
In short: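 IL-8 levels read by ELISA at 24 hours after dosing human skin fibroblast cultures. Parallel SRB staining assessed overt cytotoxicity, and gain or loss of signal was fitted against DMSO control.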

[2] = read-out: TIMP metallopeptidase inhibitor 2 (TIMP2), TIMP2 (gene 7077); assay: BSK_KF3CT_TIMP2: BioMAP Diversity Plus: KF3CT Assay for TIMP metallopeptidase inhibitor 2 (TIMP2) Biomarker Activity (AID 2283071); conditions: actives raise or lower the signal; primary human keratinocytes with fibroblasts
In short: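 ELISA readout of TIMP-2 in keratinocyte plus foreskin fibroblast co-cultures (human skin primary cells), 24 h post-dose. Gain or loss of signal fitted relative to DMSO.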

[3] = read-out: Interferon-gamma inducible Protein 10 (IP10), CXCL10 (gene 3627); assay: BSK_KF3CT_IP10: BioMAP Diversity Plus: KF3CT Assay for Interferon-gamma inducible Protein 10 (IP10) Biomarker Activity (AID 2283068); conditions: actives raise or lower the signal; primary human keratinocytes with fibroblasts
In short: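 In a primary skin co-culture of keratinocytes and fibroblasts, IP-10 is quantified by ELISA at 24 h after dosing. SRB staining of parallel wells monitors overt toxicity. Curves are fitted both directions against DMSO.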

[4] = CEETOX_H295R_OHPROG: CeeTox H295R High-throughput Steroidogenesis Assay for OH-Progesterone (OHPROG) (AID 2283435); conditions: actives raise or lower the signal
[5] = read-out: ABC Transporter (ABCC3), ABCC3 (gene 8714); assay: LTEA_HepaRG_ABCC3: Life Technologies and Expression Analysis (LTEA) Assay for ABC Transporter (ABCC3) using HepaRG (AID 2283462); conditions: actives raise or lower the signal; mRNA level, 48 h
In short: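 Transcript level by TaqMan qRT-PCR, normalised to three housekeeping genes, fitted in both directions relative to vehicle. Chemicals tested in duplicate at eight half-log concentrations up to 100 uM for 48 h on HepaRG cells (0.5% DMSO).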

[6] = read-out: TIMP metallopeptidase inhibitor 1 (TIMP1), TIMP1 (gene 7076); assay: BSK_hDFCGF_TIMP1: BioMAP Diversity Plus: hDFCGF Assay for TIMP metallopeptidase inhibitor 1 (TIMP1) Biomarker Activity (AID 2283062); conditions: actives raise or lower the signal; primary human foreskin fibroblasts
In short: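 TIMP-1 measured by ELISA 24 h after chemical dosing of primary human skin fibroblasts, with gain or loss fitted relative to DMSO. Parallel SRB staining (560 nm) monitored overt cytotoxicity.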

[7] = target: human Peripheral-type Benzodiazepine Receptor (PBR), TSPO (gene 706) (UniProt P30536); assay: NVS_MP_hPBR: NovaScreen (NVS) Membrane Protein Assay for human Peripheral-type Benzodiazepine Receptor (PBR) (AID 2283331; active = hit-call score of the fitted dose curve at least 0.9, where 1 is the maximum;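 note: hits reduce radioligand binding relative to DMSO baseline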)
In short: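 Cell-free binding to human colonic membrane preparations measured by filter-based scintillation counting after 1 h. Compounds first run at 25 uM in duplicate, then concentration series for actives; signal loss against DMSO baseline.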

[8] = target: Estrogen receptor (Homo sapiens) (UniProt P03372); assay: OT_ERa_GFPERaERE_0120: Odyssey Thera (OT) 2-hour HeLa Transcription Induction Assay for Estrogen Receptor (AID 2283382; active = hit-call score of the fitted dose curve at least 0.9, where 1 is the maximum)
In short: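 Fluorescence microscopy read-out: inducible fluorescent protein reporter in HeLa cells, imaged 2 h post-dose. Signal increase over DMSO negative control fitted as single primary endpoint via high content image analysis.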

[9] = CCTE_Mundy_HCI_Cortical_Synap_Neur_Matur_NeuriteLength: CCTE's Synaptogenesis and Neurite Maturation Assay in rat cortical cells for Neurite Length, Mundy Lab (AID 2284214)
In short: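 Read-out: high-content imaging of MAP2-labelled neurites, with synaptophysin and Hoechst co-stain, in rat cortical cultures fixed at DIV 12. Activity fitted in positive direction relative to DMSO baseline.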

[10] = read-out: Monocyte Chemoattractant Protein-1 (MCP1), CCL2 (gene 6347); assay: BSK_CASM3C_MCP1: BioMAP Diversity Plus: CASM3C Assay for Monocyte Chemoattractant Protein-1 (MCP1) Biomarker Activity (AID 2283046); conditions: actives raise or lower the signal; primary human coronary artery smooth muscle cells;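 note: MCP-1 level quantified by ELISA 24 h after dosing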
[11] = read-out: E-selectin (Homo sapiens) (UniProt P16581); assay: BSK_LPS_Eselectin: BioMAP Diversity Plus: LPS Assay for Eselectin Biomarker Activity (AID 2283077); conditions: actives raise or lower the signal; primary human HUVEC with PBMC
In short: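 E-selectin ELISA on LPS-stimulated endothelial cell/PBMC co-cultures, read 24 h post-treatment; gains and losses fitted against DMSO. Parallel SRB staining (0.1% SRB after 10% TCA fixation, 560 nm) flags overt cytotoxicity.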

CD40, CD40 (gene 958) = assay: BSK_SAg_CD40: BioMAP Diversity Plus: SAg Assay for CD40 Biomarker Activity (AID 2283088); conditions: actives raise or lower the signal; primary human HUVEC with PBMC
In short: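 CD40 is measured by fluorescence ELISA in an endothelial/PBMC primary human co-culture at 24 h post-dose. Fitting is bidirectional, DMSO baseline. Parallel SRB staining (560 nm) flags cytotoxicity.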

[12] = read-out: Fatty acid synthase (Homo sapiens) (UniProt P49327); assay: LTEA_HepaRG_FASN: Life Technologies and Expression Analysis (LTEA) Assay for Fatty Acid Synthase (FASN) using HepaRG (AID 2283448); conditions: actives raise or lower the signal; mRNA level, 48 h
In short: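 HepaRG, 48 h exposure, 8-pt half-log series top 100 uM, 0.5% DMSO vehicle, duplicates. Readout: FASN transcript by Fluidigm qRT-PCR; housekeeping-normalized; bidirectional curve fit vs DMSO baseline.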

[13] = ATG_XTT_Cytotoxicity: Cytotoxicity Assessment in the Attagene TRANS-FACTORIAL HepG2 Assay (AID 2283584; active = hit-call score of the fitted dose curve at least 0.9, where 1 is the maximum)
In short: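 Viability endpoint from XTT after 24 h chemical exposure of reporter-transfected human HepG2 liver cells; signal loss fitted relative to DMSO negative control.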

[14] = read-out: Macrophage colony-stimulating factor (MCSF), CSF1 (gene 1435); assay: BSK_hDFCGF_MCSF: BioMAP Diversity Plus: hDFCGF Assay for Macrophage colony-stimulating factor (MCSF) Biomarker Activity (AID 2283060); conditions: actives raise or lower the signal; primary human foreskin fibroblasts
In short: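 M-CSF levels read by ELISA at 24 h post-dosing in human skin fibroblasts. Parallel cultures stained with SRB assessed cytotoxicity at the same time point; response fitted in both directions against the DMSO baseline.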

[15] = CEETOX_H295R_11DCORT: CeeTox H295R High-throughput Steroidogenesis Assay for 11-Deoxycortisol (11DCORT) (AID 2283432); conditions: actives raise or lower the signal
In short: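 H295R cells prestimulated 48 h with 10 uM forskolin, then exposed 48 h to chemical in 0.1% DMSO. 11-Deoxycortisol in medium quantified by HPLC-MS/MS after MTBE extraction; bidirectional fit versus DMSO. MTT viability read in same wells.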

[16] = CEETOX_H295R_CORTISOL: CeeTox H295R High-throughput Steroidogenesis Assay for Cortisol (AID 2283438); conditions: actives raise or lower the signal;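 note: cortisol secreted into medium quantified by LC-MS/MS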
In short: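 Read-out: cortisol in culture medium by reverse-phase C18 HPLC with ESI-positive tandem MS, after MTBE liquid-liquid extraction. Cells: human adrenal H295R, forskolin-primed (10 uM, 48 h) before 48 h chemical exposure in 0.1% DMSO.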

[17] = CEETOX_H295R_DOC: CeeTox H295R High-throughput Steroidogenesis Assay for DOC (AID 2283439); conditions: actives raise or lower the signal
In short: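 Human adrenocortical H295R cells, passages up to 10, received 10 uM forskolin for 48 h before chemical addition. After another 48 h exposure in 0.1% DMSO, secreted DOC was measured by LC-MS/MS, with gain or loss fitted against DMSO controls.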

[18] = read-out: Urokinase-type plasminogen activator receptor (uPAR), PLAUR (gene 5329); assay: BSK_CASM3C_uPAR: BioMAP Diversity Plus: CASM3C Assay for Urokinase-type plasminogen activator receptor (uPAR) Biomarker Activity (AID 2283054); conditions: actives raise or lower the signal; primary human coronary artery smooth muscle cells;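 note: cell-surface uPAR protein level quantified by ELISA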
[19] = BSK_SAg_Proliferation: Cell Proliferation Assessment in the BioMAP Diversity Plus: SAg Assay (AID 2283095); conditions: primary human HUVEC with PBMC;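 note: relative cell number as total protein by SRB absorbance in sub-confluent culture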
In short: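 HUVEC/PBMC co-culture, 96-well. TCA-fixed (10%), 0.1% SRB stain, A560 at 96 h. Protein content used as viability readout; bidirectional fitting vs DMSO control.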

[20] = read-out: Tumor necrosis factor receptor 1 (TNFRSF1A), TNFRSF1A (gene 7132); assay: LTEA_HepaRG_TNFRSF1A: Life Technologies and Expression Analysis (LTEA) Assay for Tumor necrosis factor receptor 1 (TNFRSF1A) using HepaRG (AID 2283535); conditions: actives raise or lower the signal; mRNA level, 48 h
In short: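 mRNA measured by qRT-PCR (TaqMan, Fluidigm arrays) against ACTB/GAPDH/POLR2A housekeepers after 48 h chemical exposure of HepaRG cells. Top concentration 100 uM, half-log 8-point series, duplicates; vehicle 0.5% DMSO, both fit directions.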

[21] = read-out: Interleukin-1 alpha (IL1a), IL1A (gene 3552); assay: BSK_KF3CT_IL1a: BioMAP Diversity Plus: KF3CT Assay for Interleukin-1 alpha (IL1a) Biomarker Activity (AID 2283070); conditions: actives raise or lower the signal; primary human keratinocytes with fibroblasts
In short: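 IL-1a was detected by ELISA 24 h after chemical treatment of a co-culture of human skin keratinocytes and foreskin fibroblasts. Gain or loss of signal was fitted against the DMSO baseline.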

[22] = read-out: ABC Transporter (ABCC2), ABCC2 (gene 1244); assay: LTEA_HepaRG_ABCC2: Life Technologies and Expression Analysis (LTEA) Assay for ABC Transporter (ABCC2) using HepaRG (AID 2283464); conditions: actives raise or lower the signal; mRNA level, 48 h
In short: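 Endpoint is ABCC2 transcript level from qRT-PCR, normalized to three housekeeping genes and fitted bidirectionally relative to DMSO. Human HepaRG cells received test chemical for 48 h at up to 100 uM (8 points, half-log steps, 0.5% DMSO), duplicate wells.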

[23] = read-out: Nuclear factor erythroid 2-related factor 2 (Homo sapiens) (UniProt Q16236); assay: LTEA_HepaRG_NFE2L2: Life Technologies and Expression Analysis (LTEA) Assay for Nuclear factor erythroid 2-related factor 2 (NFE2L2) Transcription Factor using HepaRG (AID 2283527); conditions: actives raise or lower the signal; mRNA level, 48 h;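 note: TaqMan qRT-PCR transcript level normalised to ACTB GAPDH and POLR2A housekeeping genes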
In short: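 NFE2L2 transcript level was read by qRT-PCR (housekeeping ACTB/GAPDH/POLR2A normalisation) after 48 h chemical treatment of HepaRG in serum-free induction medium. Duplicate 8-point half-log curves, top 100 uM, 0.5% DMSO vehicle; up- or down-regulation fitted against vehicle.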

[24] = Tanguay_ZF_120hpf_EYE_legacy: (Legacy) Oregon State University Tanguay Lab 120 Hour Post-fertilization zebrafish Assay for Eye Malformation (AID 2283636; active = hit-call score of the fitted dose curve at least 0.9, where 1 is the maximum;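 note: binary presence or absence of eye malformation scored by brightfield in 120 hpf larvae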)
In short: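 Binary brightfield scoring of eye defects at 120 hpf after static exposure from 6 hpf of single pronase-dechorionated wild-type embryos (28C, 0.64% DMSO). Non-mortality endpoints omitted where embryos died; fit vs DMSO.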

UniProt P49327, sequence (P49327 whole entry, looked up): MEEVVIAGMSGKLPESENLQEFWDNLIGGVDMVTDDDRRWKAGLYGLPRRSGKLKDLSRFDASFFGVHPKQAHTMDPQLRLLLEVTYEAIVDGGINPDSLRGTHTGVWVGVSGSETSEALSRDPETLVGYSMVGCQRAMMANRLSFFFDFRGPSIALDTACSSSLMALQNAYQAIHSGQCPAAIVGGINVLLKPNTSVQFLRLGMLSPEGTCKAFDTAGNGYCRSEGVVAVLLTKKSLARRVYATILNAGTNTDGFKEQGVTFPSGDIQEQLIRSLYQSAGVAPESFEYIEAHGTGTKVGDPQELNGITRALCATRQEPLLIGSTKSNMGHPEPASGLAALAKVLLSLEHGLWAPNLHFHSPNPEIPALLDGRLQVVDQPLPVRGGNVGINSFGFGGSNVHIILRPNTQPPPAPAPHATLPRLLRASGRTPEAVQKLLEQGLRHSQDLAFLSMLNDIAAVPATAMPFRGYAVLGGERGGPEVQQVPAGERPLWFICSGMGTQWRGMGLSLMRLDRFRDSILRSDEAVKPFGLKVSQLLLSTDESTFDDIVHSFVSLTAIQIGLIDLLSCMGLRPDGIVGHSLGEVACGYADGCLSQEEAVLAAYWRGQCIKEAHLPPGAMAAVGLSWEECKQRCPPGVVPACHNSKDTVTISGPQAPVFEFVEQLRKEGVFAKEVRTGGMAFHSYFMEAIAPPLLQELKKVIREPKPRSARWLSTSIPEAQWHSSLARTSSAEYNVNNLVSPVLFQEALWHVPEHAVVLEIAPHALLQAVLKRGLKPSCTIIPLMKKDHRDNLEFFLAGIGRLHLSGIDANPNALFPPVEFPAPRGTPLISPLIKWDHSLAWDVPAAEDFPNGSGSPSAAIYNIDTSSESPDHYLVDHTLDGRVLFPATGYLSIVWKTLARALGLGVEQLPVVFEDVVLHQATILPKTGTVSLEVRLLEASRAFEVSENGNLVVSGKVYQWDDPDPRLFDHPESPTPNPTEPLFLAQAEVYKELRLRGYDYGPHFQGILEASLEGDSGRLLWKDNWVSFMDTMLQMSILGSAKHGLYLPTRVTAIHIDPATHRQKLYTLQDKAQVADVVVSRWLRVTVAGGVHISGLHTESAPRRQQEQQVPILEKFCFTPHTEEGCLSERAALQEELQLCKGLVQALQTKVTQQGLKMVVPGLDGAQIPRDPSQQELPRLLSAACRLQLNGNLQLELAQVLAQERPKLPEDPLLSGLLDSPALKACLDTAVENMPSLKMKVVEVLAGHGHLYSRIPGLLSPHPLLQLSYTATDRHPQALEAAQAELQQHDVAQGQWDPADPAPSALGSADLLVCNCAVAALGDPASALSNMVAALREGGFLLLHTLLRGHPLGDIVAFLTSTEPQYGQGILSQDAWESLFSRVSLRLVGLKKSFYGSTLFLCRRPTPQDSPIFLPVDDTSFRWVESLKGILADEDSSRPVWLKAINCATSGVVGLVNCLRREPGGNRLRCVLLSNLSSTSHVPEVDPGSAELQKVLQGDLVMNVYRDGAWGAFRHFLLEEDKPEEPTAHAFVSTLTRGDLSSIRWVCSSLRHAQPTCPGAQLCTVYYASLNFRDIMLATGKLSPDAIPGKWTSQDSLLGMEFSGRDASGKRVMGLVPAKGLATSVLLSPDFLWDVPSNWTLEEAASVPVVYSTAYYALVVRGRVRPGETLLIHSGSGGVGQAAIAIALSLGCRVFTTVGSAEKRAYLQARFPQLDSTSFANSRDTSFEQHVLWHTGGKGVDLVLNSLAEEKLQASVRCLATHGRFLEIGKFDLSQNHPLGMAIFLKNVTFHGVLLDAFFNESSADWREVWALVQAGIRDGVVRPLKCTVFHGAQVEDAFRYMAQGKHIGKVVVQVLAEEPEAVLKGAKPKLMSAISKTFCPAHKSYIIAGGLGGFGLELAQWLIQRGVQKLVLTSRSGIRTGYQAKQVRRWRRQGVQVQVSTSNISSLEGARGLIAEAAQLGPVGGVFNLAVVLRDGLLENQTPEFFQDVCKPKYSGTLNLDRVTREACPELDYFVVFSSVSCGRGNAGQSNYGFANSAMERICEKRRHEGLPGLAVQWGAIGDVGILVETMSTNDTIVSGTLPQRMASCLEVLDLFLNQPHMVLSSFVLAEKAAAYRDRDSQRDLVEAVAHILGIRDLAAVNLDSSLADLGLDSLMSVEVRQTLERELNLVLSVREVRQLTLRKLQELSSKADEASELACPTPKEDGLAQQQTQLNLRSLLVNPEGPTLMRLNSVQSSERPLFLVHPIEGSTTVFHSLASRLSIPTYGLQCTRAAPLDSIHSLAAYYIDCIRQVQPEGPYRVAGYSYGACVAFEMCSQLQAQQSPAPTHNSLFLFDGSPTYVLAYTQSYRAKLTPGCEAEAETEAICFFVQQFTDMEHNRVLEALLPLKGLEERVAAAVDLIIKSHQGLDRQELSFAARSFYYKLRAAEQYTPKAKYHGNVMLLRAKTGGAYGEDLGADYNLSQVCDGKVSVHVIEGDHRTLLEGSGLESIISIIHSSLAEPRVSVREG
UniProt P16581, sequence (P16581 whole entry, looked up): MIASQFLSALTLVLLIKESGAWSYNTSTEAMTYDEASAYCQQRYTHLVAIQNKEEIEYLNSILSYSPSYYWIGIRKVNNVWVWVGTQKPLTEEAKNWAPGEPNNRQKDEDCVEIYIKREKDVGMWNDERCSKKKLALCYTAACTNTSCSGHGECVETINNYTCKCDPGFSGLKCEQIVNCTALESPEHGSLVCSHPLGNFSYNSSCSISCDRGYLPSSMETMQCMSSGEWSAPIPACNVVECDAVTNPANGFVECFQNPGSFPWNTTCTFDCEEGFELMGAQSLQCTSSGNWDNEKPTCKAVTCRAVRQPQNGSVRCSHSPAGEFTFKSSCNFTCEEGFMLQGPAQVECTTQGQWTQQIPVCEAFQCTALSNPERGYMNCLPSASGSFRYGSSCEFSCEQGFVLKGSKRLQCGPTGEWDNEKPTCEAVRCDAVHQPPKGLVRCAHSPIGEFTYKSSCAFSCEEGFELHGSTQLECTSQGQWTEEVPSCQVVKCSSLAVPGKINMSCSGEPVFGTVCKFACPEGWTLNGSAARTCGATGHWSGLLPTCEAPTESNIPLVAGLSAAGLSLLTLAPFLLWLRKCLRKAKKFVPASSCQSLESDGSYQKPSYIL
UniProt Q16236, sequence (Q16236 whole entry, looked up): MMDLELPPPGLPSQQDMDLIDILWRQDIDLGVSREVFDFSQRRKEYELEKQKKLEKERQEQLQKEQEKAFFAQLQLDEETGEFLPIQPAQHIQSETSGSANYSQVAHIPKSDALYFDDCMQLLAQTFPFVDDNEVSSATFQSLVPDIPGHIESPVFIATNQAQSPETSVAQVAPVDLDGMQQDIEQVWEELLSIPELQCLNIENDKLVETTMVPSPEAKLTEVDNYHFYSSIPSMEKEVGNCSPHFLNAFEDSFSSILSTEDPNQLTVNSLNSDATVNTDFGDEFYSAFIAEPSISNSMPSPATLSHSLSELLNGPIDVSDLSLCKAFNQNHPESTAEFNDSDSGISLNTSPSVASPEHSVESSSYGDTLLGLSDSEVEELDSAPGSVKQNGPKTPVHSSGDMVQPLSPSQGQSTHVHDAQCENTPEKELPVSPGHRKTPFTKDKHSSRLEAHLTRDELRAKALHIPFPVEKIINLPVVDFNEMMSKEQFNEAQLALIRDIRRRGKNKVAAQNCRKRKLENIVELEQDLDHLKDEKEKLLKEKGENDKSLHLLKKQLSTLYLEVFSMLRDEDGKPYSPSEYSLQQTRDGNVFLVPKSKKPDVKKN
UniProt P30536, sequence (P30536 whole entry, looked up): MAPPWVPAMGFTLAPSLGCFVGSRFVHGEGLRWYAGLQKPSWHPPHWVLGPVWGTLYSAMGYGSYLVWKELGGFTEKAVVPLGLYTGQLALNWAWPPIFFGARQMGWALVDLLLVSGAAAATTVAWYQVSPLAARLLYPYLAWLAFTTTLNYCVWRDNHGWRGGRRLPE
UniProt P03372, sequence (P03372 whole entry, looked up): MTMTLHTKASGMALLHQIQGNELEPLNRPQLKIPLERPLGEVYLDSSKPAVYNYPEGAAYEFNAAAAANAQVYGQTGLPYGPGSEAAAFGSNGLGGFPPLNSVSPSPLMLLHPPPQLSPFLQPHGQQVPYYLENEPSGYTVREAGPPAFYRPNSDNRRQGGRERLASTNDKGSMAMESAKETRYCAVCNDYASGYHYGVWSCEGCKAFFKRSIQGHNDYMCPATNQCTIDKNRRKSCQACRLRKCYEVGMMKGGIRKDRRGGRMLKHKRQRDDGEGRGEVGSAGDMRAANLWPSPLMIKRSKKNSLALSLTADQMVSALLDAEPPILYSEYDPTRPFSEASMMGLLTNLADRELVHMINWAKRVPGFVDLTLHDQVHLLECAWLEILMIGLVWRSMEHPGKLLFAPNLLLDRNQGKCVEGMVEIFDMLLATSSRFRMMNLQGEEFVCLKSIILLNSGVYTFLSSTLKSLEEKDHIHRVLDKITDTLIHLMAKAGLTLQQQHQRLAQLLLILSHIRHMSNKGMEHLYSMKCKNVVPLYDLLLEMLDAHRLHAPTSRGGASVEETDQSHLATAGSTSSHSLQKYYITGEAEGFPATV

For `CCCCCCCCCCCCc1cccc(S(=O)(=O)O)c1`, the AC50 [1] was active: 31.9 µM and the AC50 [2] was active: 14.7 µM.

For `Cc1ccc(N)c(N)c1`, the outcome [3] was “inactive”, the outcome [4] was “inactive” and the outcome [5] was “inactive”.

For `CNC(=O)Oc1cccc2ccccc12`, the AC50 [6] was active: 20 µM, the AC50 [7] was active: 11.5 µM and the outcome [8] was “inactive”. The outcome [9] was “inactive”.

For `CC(C)(c1ccccc1)c1ccc(O)c(C(C)(C)c2ccccc2)c1`, the AC50 [10] was active: 29.3 µM, the AC50 [11] was active: 13 µM and the AC50 (CD40, CD40 (gene 958)) was active: 12.3 µM. The outcome [12] was “inactive” and the outcome [13] was “inactive”.

For `CCCCCCOC(=O)c1ccccc1C(=O)OCCCCCC`, the AC50 [14] was active: 4.28 µM, the outcome [15] was “inactive” and the outcome [16] was “inactive”. The outcome [17] was “inactive”.

For `CC1(C(=O)Nc2ccc(O)c(Cl)c2Cl)CCCCC1`, the outcome [18] was “inactive”, the AC50 [19] was active: 27.7 µM and the outcome [12] was “inactive”. For the same molecule, the outcome [20] was “inactive”.

For `c1ccc2c(c1)oc1ccccc12`, the outcome [6] was “inactive” and the outcome [20] was “inactive”.

In the case of `ClC1=C(Cl)[C@]2(Cl)[C@H]3[C@H]([C@@H]4C=C[C@H]3C4)[C@@]1(Cl)C2(Cl)Cl`, the AC50 [6] is reported as active: 12.6 µM, the AC50 [21] is reported as active: 26.1 µM and the outcome [22] is reported as “inactive”. For the same molecule, the outcome [23] was “inactive” and the outcome [24] was “inactive”.

— PubChem BioAssay (EPA / NIEHS)
